Sequences and labels used below:
B1: GPR68, Q15743 (parent)
chain: MGNITADNSSMSCTIDHTIHQTLAPVVYVTVLVVGFPANCLSLYFGYLQIKARNELGVYLCNLTVADLFYICSLPFWLQYVLQHDNWSHGDLSCQVCGILLYENIYISVGFLCCISVDRYLAVAHPFRFHQFRTLKAAVGVSVVIWAKELLTSIYFLMHEEVIEDENQHRVCFEHYPIQAWQRAINYYRFLVGFLFPICLLLASYQGILRAVRRSHGTQKSRKDQIQRLVLSTVVIFLACFLPYHVLLLVRSVWEASCDFAKGVFNAYHFSLLLTSFNCVADPVLYCFVSETTHRDLARLRGACLAFLTCSRTGRAREAYPLGAPEASGKSGAQGEEPELLTKLHPAFQTPNSPGSGGFPTGRLA

In data set [1] the parent is B1. The experiment in a line: cAMP reporter score (Enrich2 score, wild type = 0); higher = more signal; HEK293T, FACS bins.
In data set [2] the parent is B1. The experiment in a line: surface expression score (Enrich2 score, wild type = 0); higher = more signal; HEK293T, FACS bins.

For 33 variants, cAMP reporter score and surface expression score results are on record in the GPR68 mutational scans of Howard et al. (2025).

Scores whose standard error is large were omitted. Not listed are two conditions whose scores span a narrow range. In variant names, del marks residues removed and ins residues inserted between the two positions. For some assays here: How much ogerin was present is not stated here.

Take V230M: the cAMP reporter score is -1 in data set [1] (pH 5.5); -0.933 in data set [1] (pH 6); -1.24 in data set [1] (pH 6, modulator: ogerin); -1.07 in data set [1] (pH 6.5, modulator: ogerin). For the same variant, the surface expression score in data set [2] is -1.29.

On to V230E, for which the cAMP reporter score in data set [1] (pH 5.5) was -1.04; in data set [1] (pH 6), -0.64; in data set [1] (pH 6, modulator: ogerin), -1.51; in data set [1] (pH 6.5, modulator: ogerin), -1.4. Further, the surface expression score in data set [2] is -0.718.

As for V230L, the cAMP reporter score in data set [1] (pH 5.5) amounted to 1.09; in data set [1] (pH 6), 3.2; in data set [1] (pH 6, modulator: ogerin), 0.93; in data set [1] (pH 6.5, modulator: ogerin), 2.2.

For the variant V230G, the cAMP reporter score in data set [1] (pH 5.5) is 0.583; in data set [1] (pH 6), 0.804; in data set [1] (pH 6.5, modulator: ogerin) it was -0.433.

Regarding V230P, the cAMP reporter score in data set [1] (pH 5.5) is -0.957; in data set [1] (pH 6), -1.47; in data set [1] (pH 6, modulator: ogerin) it was -1.56; in data set [1] (pH 6.5, modulator: ogerin), -1.98. Also, the surface expression score in data set [2] was -3.41.

Turning to V230T, the cAMP reporter score in data set [1] (pH 5.5) was -0.727; in data set [1] (pH 6, modulator: ogerin) it was -2.77; in data set [1] (pH 6.5, modulator: ogerin) it was -1.19.

On to V230W, for which the cAMP reporter score was -1.75 in data set [1] (pH 5.5); -0.692 in data set [1] (pH 6); 0.158 in data set [1] (pH 6.5, modulator: ogerin).

Regarding V230S, the cAMP reporter score in data set [1] (pH 5.5) is -1.2; in data set [1] (pH 6), -1.5; in data set [1] (pH 6, modulator: ogerin) it was -1.36; in data set [1] (pH 6.5, modulator: ogerin), -0.776. In addition, in data set [2], the surface expression score is -0.602.

Turning to V230F, the cAMP reporter score is -0.875 in data set [1] (pH 5.5); -0.111 in data set [1] (pH 6); -0.184 in data set [1] (pH 6.5, modulator: ogerin). In addition, in data set [2], the surface expression score was -2.63.

In the case of V230A, the cAMP reporter score is -0.649 in data set [1] (pH 5.5); -0.069 in data set [1] (pH 6); -1.26 in data set [1] (pH 6, modulator: ogerin); -1.27 in data set [1] (pH 6.5, modulator: ogerin). Also, the surface expression score in data set [2] came out at 0.688.

For V230N, the cAMP reporter score was -0.891 in data set [1] (pH 5.5); -1.64 in data set [1] (pH 6); -1.18 in data set [1] (pH 6, modulator: ogerin); -0.949 in data set [1] (pH 6.5, modulator: ogerin). The surface expression score in data set [2] is -3.04.

For the variant V230K, the cAMP reporter score is -1.68 in data set [1] (pH 5.5); -1.04 in data set [1] (pH 6); -1.87 in data set [1] (pH 6, modulator: ogerin); -0.843 in data set [1] (pH 6.5, modulator: ogerin). Further, the surface expression score in data set [2] was -2.18.

Turning to F237_L238insGSG, the cAMP reporter score in data set [1] (pH 5.5) was -1.68; in data set [1] (pH 6), -1.86; in data set [1] (pH 6, modulator: ogerin) it was -1.68; in data set [1] (pH 6.5, modulator: ogerin), -1.66. Further, the surface expression score in data set [2] is -2.41.

On to V234_V235insGS, for which the cAMP reporter score in data set [1] (pH 5.5) is -0.907; in data set [1] (pH 6) it was -0.803; in data set [1] (pH 6, modulator: ogerin) it was -1.49; in data set [1] (pH 6.5, modulator: ogerin), -0.693. Also, in data set [2], the surface expression score is -2.77.

For the variant L238_A239insGSG, the cAMP reporter score in data set [1] (pH 5.5) was -0.722; in data set [1] (pH 6), -0.89; in data set [1] (pH 6, modulator: ogerin), -0.785; in data set [1] (pH 6.5, modulator: ogerin) it was -0.664. Also, the surface expression score in data set [2] is -2.45.

Consider R228D, for which the cAMP reporter score in data set [1] (pH 5.5) is -1.12; in data set [1] (pH 6, modulator: ogerin), -0.916; in data set [1] (pH 6.5, modulator: ogerin), -0.929.

Consider R228K, for which the cAMP reporter score in data set [1] (pH 5.5) is -0.754; in data set [1] (pH 6), 0; in data set [1] (pH 6, modulator: ogerin), -0.994; in data set [1] (pH 6.5, modulator: ogerin), -0.77. The surface expression score in data set [2] is -0.81.

As for R228A, the cAMP reporter score was -0.167 in data set [1] (pH 5.5); -0.535 in data set [1] (pH 6, modulator: ogerin); -0.332 in data set [1] (pH 6.5, modulator: ogerin). In data set [2], the surface expression score was -0.96.

With R228E, the cAMP reporter score in data set [1] (pH 5.5) was -1.04; in data set [1] (pH 6), -0.141; in data set [1] (pH 6.5, modulator: ogerin) it was -1.31. Further, the surface expression score in data set [2] was -2.02.

In the case of R228T, the cAMP reporter score in data set [1] (pH 5.5) was -0.236; in data set [1] (pH 6) it was -1.06; in data set [1] (pH 6, modulator: ogerin), -0.992; in data set [1] (pH 6.5, modulator: ogerin), -1.35. Besides, the surface expression score in data set [2] is -2.05.

With R228F, the cAMP reporter score is -0.655 in data set [1] (pH 5.5); -0.54 in data set [1] (pH 6); -1.31 in data set [1] (pH 6, modulator: ogerin); -1.44 in data set [1] (pH 6.5, modulator: ogerin). In data set [2], the surface expression score was -2.33.

In the case of R228H, the cAMP reporter score was 0.112 in data set [1] (pH 5.5); -1.33 in data set [1] (pH 6); -0.495 in data set [1] (pH 6, modulator: ogerin); -1.31 in data set [1] (pH 6.5, modulator: ogerin). Besides, in data set [2], the surface expression score was -0.787.

As to R228I, the cAMP reporter score in data set [1] (pH 5.5) is 0.814; in data set [1] (pH 6), -0.22; in data set [1] (pH 6, modulator: ogerin), 0.545; in data set [1] (pH 6.5, modulator: ogerin), -0.14. The surface expression score in data set [2] was -1.71.

Consider R228N, for which the cAMP reporter score in data set [1] (pH 5.5) is -0.019; in data set [1] (pH 6, modulator: ogerin), -0.668; in data set [1] (pH 6.5, modulator: ogerin) it was -0.17. For the same variant, the surface expression score in data set [2] is -0.285.

Turning to R228W, the cAMP reporter score in data set [1] (pH 5.5) was 1.51; in data set [1] (pH 6), 0.583; in data set [1] (pH 6, modulator: ogerin), 1.51; in data set [1] (pH 6.5, modulator: ogerin), 1.01. In addition, in data set [2], the surface expression score is 0.596.

Take R228Y: the cAMP reporter score in data set [1] (pH 5.5) is 1.96; in data set [1] (pH 6) it was -0.069; in data set [1] (pH 6, modulator: ogerin), 1.66; in data set [1] (pH 6.5, modulator: ogerin) it was 0.332. Besides, in data set [2], the surface expression score was determined as 0.871.

With R228G, the cAMP reporter score in data set [1] (pH 5.5) was -0.31; in data set [1] (pH 6), -1.09; in data set [1] (pH 6, modulator: ogerin), -1.12; in data set [1] (pH 6.5, modulator: ogerin) it was -1.08. Moreover, the surface expression score in data set [2] is -0.661.

With R228M, the cAMP reporter score in data set [1] (pH 5.5) is -0.383; in data set [1] (pH 6, modulator: ogerin), -1.08; in data set [1] (pH 6.5, modulator: ogerin), -0.945. Also, the surface expression score in data set [2] is -1.93.

For the variant R228P, the cAMP reporter score is -1.78 in data set [1] (pH 5.5); -1.15 in data set [1] (pH 6); -1.36 in data set [1] (pH 6, modulator: ogerin); -1.27 in data set [1] (pH 6.5, modulator: ogerin). Moreover, the surface expression score in data set [2] was found to be 0.069.

Regarding R228L, the cAMP reporter score in data set [1] (pH 5.5) was 0.388; in data set [1] (pH 6, modulator: ogerin), -0.17; in data set [1] (pH 6.5, modulator: ogerin) it was -0.879.

As for R228S, the cAMP reporter score in data set [1] (pH 5.5) is -1.19; in data set [1] (pH 6) it was -1.17; in data set [1] (pH 6, modulator: ogerin), -1.2; in data set [1] (pH 6.5, modulator: ogerin), -1.58. In addition, the surface expression score in data set [2] is -2.47.

Turning to R228Q, the cAMP reporter score in data set [1] (pH 5.5) was 0.172; in data set [1] (pH 6), -0.463; in data set [1] (pH 6, modulator: ogerin) it was -0.246; in data set [1] (pH 6.5, modulator: ogerin) it was -1.07. In addition, the surface expression score in data set [2] was -1.11.

Take R228V: the cAMP reporter score was 0.506 in data set [1] (pH 5.5); -0.153 in data set [1] (pH 6); 0.658 in data set [1] (pH 6, modulator: ogerin); -0.202 in data set [1] (pH 6.5, modulator: ogerin). Moreover, the surface expression score in data set [2] was -1.62.
